# Experimental data taken from ChEMBL document CHEMBL5606458, “ASAP - ZIKV NS2B-NS3 protease fluorescence single point” (2024).
# In all, about 2,700 compounds went through this assay and about 160 (5.9%) showed an effect of 50% or more. The list shows a part of the results.
# Target: Nonstructural protein 3 (Zika virus) (UniProt A0A024AXB9)
# [1] = PRVABC59, Concentration 50.0 uM, Number of replicates 1.0
# [2] = PRVABC59, Concentration 15.0 uM, Number of replicates 1.0
# [3] = PRVABC59, Concentration 10.0 uM, Number of replicates 1.0
# Sequence of UniProt A0A024AXB9 (A0A024AXB9 as listed by the source): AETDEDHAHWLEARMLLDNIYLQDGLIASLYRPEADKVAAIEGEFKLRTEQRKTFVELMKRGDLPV
smiles,measurement,setting,value
CC(=O)N(C)C1CCN(C(=O)C2CCN(c3ccc(C=O)cc3)CC2)CC1,inhibition,[1],22.7%
CCS(=O)(=O)Cn1cc(C2CCNCC2)c(C)n1,inhibition,"PRVABC59, Concentration 49.5 uM, Number of replicates 2.0, Standard deviation 3.2018149908360845 %",-0.635%
same,inhibition,"PRVABC59, Concentration 99.01 uM, Number of replicates 2.0, Standard deviation 2.9597815713467575 %",-0.319%
same,inhibition,"PRVABC59, Concentration 198.0 uM, Number of replicates 2.0, Standard deviation 2.756719572507816 %",-0.294%
O=C(NCC[C@H](O)c1ccccc1)c1cc(Cl)ccc1NS(=O)(=O)c1ccc(Oc2ccccc2Cl)cc1,inhibition,[2],38.9%
Cc1cc(CO)c2cccc(Cc3cccc(NC(=O)c4cnn(Cc5c(C)noc5C)c4)c3)c2n1,inhibition,"PRVABC59, Concentration 49.95 uM, Number of replicates 2.0, Standard deviation 1.2645726940217121 %",-7.66%
same,inhibition,"PRVABC59, Concentration 99.9 uM, Number of replicates 2.0, Standard deviation 1.7914774212394455 %",-9.24%
N#Cc1ccc(NC(=O)c2cccc(OCc3c(Cl)cccc3Cl)c2)cc1,inhibition,"PRVABC59, Concentration 49.5 uM, Number of replicates 2.0, Standard deviation 0.20634422681357545 %",4.22%
same,inhibition,"PRVABC59, Concentration 99.01 uM, Number of replicates 2.0, Standard deviation 2.5272055371938618 %",0.672%
same,inhibition,"PRVABC59, Concentration 198.0 uM, Number of replicates 2.0, Standard deviation 2.5844097266569093 %",-0.903%
O=Cc1ccc(N2CCC(C(=O)N3CCCN(C(=O)c4cccs4)CC3)CC2)cc1,inhibition,[1],27.4%
Cc1cc(CO)c2cccc(NC(=O)[C@@H](N)CC(N)=O)c2n1,inhibition,"PRVABC59, Concentration 49.95 uM, Number of replicates 2.0, Standard deviation 2.393655071198483 %",-8.78%
same,inhibition,"PRVABC59, Concentration 99.9 uM, Number of replicates 2.0, Standard deviation 5.685557854908542 %",2.53%
COc1cc(C(=O)N2CCCCC2)nc(N2CCNCC2)n1,inhibition,"PRVABC59, Concentration 49.5 uM, Number of replicates 2.0, Standard deviation 4.620460715798585 %",0.369%
same,inhibition,"PRVABC59, Concentration 99.01 uM, Number of replicates 2.0, Standard deviation 3.120933039054405 %",1.45%
same,inhibition,"PRVABC59, Concentration 198.0 uM, Number of replicates 2.0, Standard deviation 4.0741886266062775 %",2.26%
O=C(c1cc(Cl)ccc1NS(=O)(=O)c1ccc(Oc2ccccc2Cl)cc1)N1CCC(Cc2ccccc2)CC1,inhibition,[2],23.2%
Cc1ccc([C@H](CNC(=O)c2cc(Cl)ccc2NS(=O)(=O)c2ccc(Oc3ccccc3Cl)cc2)N(C)C)cc1,inhibition,[2],24.6%
CC(CNC(=O)C1CCN(c2ccc(C=O)cc2)CC1)(c1ccccc1)c1ccccc1,inhibition,[1],-6.68%
O=Cc1ccc(N2CCC(C(=O)Nc3c(Cl)cc(Cl)cc3Br)CC2)cc1,inhibition,[1],22.3%
O=C(c1cc(Cl)ccc1NS(=O)(=O)c1ccc(Oc2ccccc2Cl)cc1)N1CCc2cc(Cl)ccc2C1,inhibition,[2],8.02%
O=C(NCc1ccc(Br)cn1)c1cc(Cl)ccc1NS(=O)(=O)c1ccc(Oc2ccccc2Cl)cc1,inhibition,[2],41.7%
O=C(Nc1c(F)c(F)cc(F)c1F)c1cc(Cl)ccc1NS(=O)(=O)c1ccc(Oc2ccccc2Cl)cc1,inhibition,[2],23.1%
O=C(CN1CCN(C(=O)c2cc(Cl)ccc2NS(=O)(=O)c2ccc(Oc3ccccc3Cl)cc2)CC1)N1CCOCC1,inhibition,[2],6.13%
O=C(c1cc(Cl)ccc1NS(=O)(=O)c1ccc(Oc2ccccc2Cl)cc1)N1CCN(S(=O)(=O)c2cccc(Br)c2)CC1,inhibition,[2],20.9%
O=Cc1ccc(N2CCC(C(=O)Nc3ncnc4c3ncn4CCO)CC2)cc1,inhibition,[1],27.1%
C[C@H](NC(=O)C1CCN(c2ccc(C=O)cc2)CC1)c1ccc(Br)cc1,inhibition,[3],14%
O=C(Cn1sc2ccccc2c1=O)Nc1cccc(OCc2cn(CC(=O)Nc3ccccc3Oc3ccccc3)nn2)c1,inhibition,"PRVABC59, Concentration 49.5 uM, Number of replicates 2.0, Standard deviation 0.019067908615904634 %",53.7%
same,inhibition,"PRVABC59, Concentration 99.01 uM, Number of replicates 2.0, Standard deviation 0.0558469345004512 %",58.2%
same,inhibition,"PRVABC59, Concentration 198.0 uM, Number of replicates 2.0, Standard deviation 0.30102425600760013 %",69.5%
COc1ccc(CNC(=O)C2CCN(c3ccc(C=O)cc3)CC2)c(OC)c1,inhibition,[3],14.4%
CN(C(=O)OC(C)(C)C)[C@H]1CCN(C(=O)c2cc(Cl)ccc2NS(=O)(=O)c2ccc(Oc3ccccc3Cl)cc2)C1,inhibition,[2],13.2%
